Measured values as given in PubChem BioAssay AID1240 (Sanford-Burnham Center for Chemical Genomics, 2008).
Out of some 50,000 compounds screened, about 800 (1.6%) showed an effect of 50% or more. This is one part of the list.

These molecules were tested against Bcl-2-like protein 10 (Homo sapiens) (UniProt Q9HD36) (assay: TR3 peptide-Bcl-B binding displacers, biochemical primary FP assay, phenotype converters (AID 1240;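 further: 0% = Bcl-B with tracer peptide and DMSO and 100% = tracer peptide lacking Bcl-B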)). Details: GST-Bcl-B / FITC-TR3 peptide fluorescence polarization; stronger effect = higher value; compound at 3.75 mg/L.
Sequence of UniProt Q9HD36 (Q9HD36 whole entry, looked up): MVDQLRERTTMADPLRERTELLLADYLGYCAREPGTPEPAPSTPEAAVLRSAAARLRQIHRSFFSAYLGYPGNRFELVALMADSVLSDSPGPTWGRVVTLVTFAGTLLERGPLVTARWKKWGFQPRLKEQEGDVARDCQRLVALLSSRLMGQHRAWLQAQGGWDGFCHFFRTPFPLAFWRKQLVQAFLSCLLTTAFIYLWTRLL

Row | Structure (SMILES) | displacement [%]
1 | CCOc1ccc(N2C(=O)C3CC=CCC3C2=O)cc1 (stereo unspecified) | 14.7
2 | O=C(Nc1ccc(O)c(-c2nc3ccccc3s2)c1)C(c1ccccc1)c1ccccc1 | 0.4
3 | CC(/C=C1\SC(N2CCN(C3=NC(=O)/C(=C\C(C)=C\c4ccccc4)S3)CC2)=NC1=O)=C\c1ccccc1 | -9
4 | O=C1C(=Cc2ccc(-c3ccc(Cl)c([N+](=O)[O-])c3)o2)C(=O)c2ccccc21 | -7.8
5 | CC(=O)c1cc(Cc2csc(C(C)=O)c2)cs1 | 8.4
6 | O=C(N/N=C/c1cccc([N+](=O)[O-])c1)c1cc(C2CC2)[nH]n1 | -7.4
7 | CCOC(=O)C1=C(C)N(CC)C(=O)NC1c1ccccc1Cl (stereo unspecified) | 2.1
8 | CN1CCN(S(=O)(=O)c2cc(Cl)ccc2Br)CC1 | 17.3
9 | COc1ccc(C(NC(=O)c2ccco2)c2ccc(OC)cc2)cc1 | -4.9
10 | O=C1S/C(=C/c2ccccc2)C(=O)N1CN1CCCCC1 | 14
11 | CC1=C(C(=O)Nc2ccccc2)C2(CCCCC2)C(C#N)=C(SCC(N)=O)N1 | 0
12 | CCCCNCCCCCOc1cc(C)ccc1C | 8.1
13 | CCOC(=O)c1c(NS(=O)(=O)c2ccc(OC)c(OC)c2)sc2c1CCCC2 | -1.7
14 | CCOC(=O)C1=C(O)/C(=C\c2ccc([N+](=O)[O-])cc2)N=C1C | 1.5
15 | CCOc1cc(C2Nc3ccccc3NC3=C2C(=O)CC(c2ccc(OC)cc2)C3)ccc1OC(=O)C1CC1 (stereo unspecified) | 9
16 | COc1ccc(C(=O)Nc2c(-c3ccccc3)nc3ccc(C)cn23)cc1 | 7.3
17 | Cc1ccc(NC(=O)CC(C)C)cc1Cl | -5.1
18 | CC1C(c2ccccc2)N(C)C(c2ccccc2)C(C)C1(O)Cc1ccccc1 (stereo unspecified) | 15.9
19 | O=C(N/N=C/C(Br)=C\c1ccccc1)c1ccccn1 | -4.7
20 | CC(C)(C)c1ccc(C(=O)NC2CCCC2)cc1 | -3.1
21 | CC(=O)c1ccc(N2C(=O)c3ccc(C(=O)O)cc3C2=O)cc1 | 4.7
22 | CC(NC(=O)/C(C#N)=C/c1ccc(N(C)C)cc1)c1ccccc1 (stereo unspecified) | 1.8
23 | CCOC(=O)C1=C(C)N=c2s/c(=C\c3ccc(O)c(OC)c3)c(=O)n2C1c1ccc(N(C)C)cc1 (stereo unspecified) | -13.9

Row | Structure (SMILES) | displacement [%]
24 | CCOC(=O)c1c(-c2ccc(Cl)cc2)csc1NC(=O)C1CCCCC1C(=O)O (stereo unspecified) | -3.7
25 | O=C(c1cnn2c(C(F)(F)F)cc(-c3cccs3)nc12)N1CCCc2ccccc21 | 11.4
26 | O=C(O)/C=C/c1ccc(S(=O)(=O)N2CCN(CCN3C(=O)C4C5C=CC(C5)C4C3=O)CC2)cc1 (stereo unspecified) | -9.2
27 | COCCCNC(=O)C(=O)Nc1ccc(Cl)cc1 | 9.3
28 | CCOC(=O)/C(=C1/OC(=O)c2ccccc21)c1ccc([N+](=O)[O-])cc1 | -1.5
29 | C#CCOc1ccc(/C=C(/C#N)C(=O)Nc2cccc(Br)c2)cc1OC | 3.6
30 | O=C(Cc1ccccc1)N1CCc2ccccc2C1 | -8
31 | CCN(CC)CCC/C(=N\O)C(O)(c1ccccc1)c1ccccc1 | -4.1
32 | COc1cc(-c2ncnn2-c2ccc(F)c([N+](=O)[O-])c2)ccc1OCc1ccccc1 | -1.3
33 | CCc1ccc(N/C(=N/c2nc(C)cc(C)n2)NC(C)=O)cc1 | -3.1
34 | O=C(CN1CCOCC1)NCCNC(=O)c1ccccc1 | -7.4
35 | Cc1no[n+]([O-])c1COc1ccc(C=O)cc1 | 9
36 | O=C(COc1ccccc1Cl)Nc1ccc(Br)cc1C(=O)O | 12.4
37 | CN=C(Nc1cc(Cl)ccc1Cl)SC1CC(=O)N(c2ccc(OC)cc2)C1=O (stereo unspecified) | -2.7
38 | O=C1NC(=S)NC(=O)C1=Cc1cn(CCOc2ccc(Br)cc2)c2ccccc12 | 9.1
39 | COC(=O)c1ccc2c(c1[N+](=O)[O-])C(=O)c1ccccc1C2=O | -1.3
40 | O=[N+]([O-])c1ccccc1/C=N/N1CCN(Cc2ccc(Cl)cc2)CC1 | -1.7
41 | O=C(Nc1cccc(O)c1)c1cc2nc(-c3ccccc3)cc(-c3ccccc3)n2n1 | -4.9
42 | CC(=O)C1=C(O)C(=O)N(CCN(C)C)C1c1ccccc1 (stereo unspecified) | -4.1
43 | O=C(Cc1ccccc1)Nc1ccc(OC(F)F)cc1 | -7.4
44 | Cc1ccc(S(=O)(=O)NC(=O)N2CCc3ccccc32)cc1 | 5.6
45 | Cn1cccc1CN1CCN(C(=O)c2ccc(F)cc2)CC1 | 5.2
46 | CC(C)(CN1CCCCC1)NS(=O)(=O)c1ccc(Cl)cc1 | 3

Row | Structure (SMILES) | displacement [%]
47 | O=C(COc1ccccc1[N+](=O)[O-])Nc1cccc(Cl)c1Cl | 8.2
48 | CC(=O)Nc1ccc(S(=O)(=O)N2c3cc(C)ccc3C(C)=CC2(C)C)cc1 | -2.3
49 | O=C(NN=C1CCCC1)C(=O)NC1CCCCC1 | -4.4
50 | COc1ccc(/C=N/NS(C)(=O)=O)cc1 | 4.7
51 | O=C1C2C3C=CC(C4CC34)C2C(=O)N1c1ccc(I)cc1 (stereo unspecified) | 10.8
52 | CCCC(=O)Nc1ccc(NC(=O)COc2ccc(C(C)(C)C)cc2)cc1 | -5.2
53 | COc1cccc(-c2nc(-c3ccccn3)no2)c1 | 22
54 | Cc1cc(=O)oc2c(C(=O)c3ccccc3)c(OC(=O)c3ccccc3)ccc12 | -14.7
55 | O=C(c1cccnc1)N1CCN(C(=O)c2cccc(F)c2)CC1 | 5.7
56 | CCCOC(=O)c1ccc(NC(=O)C(C)Oc2ccccc2)cc1 (stereo unspecified) | 13.8
57 | COc1ccc(C(=O)Nc2ccc(Cl)c(-c3nc4ccccc4s3)c2)cc1[N+](=O)[O-] | -6.1
58 | COc1cc(NC(=O)c2ccc([N+](=O)[O-])cc2)ccc1NC(=O)c1ccco1 | 10.2
59 | CCOC(=O)c1c(N)sc(C(=O)Nc2ccc(OC)cc2)c1C | -0.6
60 | CCOc1ccc(C(=O)Nc2cccc(C(C)=O)c2)cc1 | 9
61 | COc1ccc(/C=C/C(=O)NCCc2nc3ccccc3[nH]2)cc1OC | 12
62 | CCCCOC(=O)c1ccc(NC(=S)NC(=O)c2cccs2)cc1 | -8.7
63 | CCN1C(=O)/C(=C\c2cccc(OCCOCCOc3ccc(C)cc3)c2)SC1=S | 2.7
64 | Cc1ccc2nc(-c3cc(Cl)c(N)c(Cl)c3)sc2c1 | 1.5
65 | NS(=O)(=O)c1ccc(N/C=C\C(=O)c2ccc3c(c2)OCO3)cc1 | 4.4
66 | CC(C)=N/N=C1/NC(=O)C(CC(=O)Nc2ccc(C)cc2C)S1 (stereo unspecified) | -0.5
67 | C=C(C)c1cccc(C(C)(C)NC(=O)Nc2ccccc2C(=O)OC)c1 | -2.7
68 | c1ccc(Nc2ncc(Cc3cccc4ccccc34)s2)cc1 | -2.2
69 | Cc1cccc(C)c1NC(=O)c1ccc2c(c1)OCCO2 | 9.1

Row | Structure (SMILES) | displacement [%]
70 | CCOc1ccc(CN2CCN(Cc3cc(OC)ccc3O)CC2)cc1 | 11.6
71 | OCCNCC(O)Cn1c2ccc(I)cc2c2cc(I)ccc21 (stereo unspecified) | -4.2
72 | COc1cc2c(cc1OC)-c1nnc(-c3ccc(Br)cc3)n1C(C)(C)C2 | 16.1
73 | O=C(CSc1nc2ccccc2o1)NCc1ccco1 | -19.3
74 | COc1cc(OC)cc(C(=O)Nc2ccc3oc(-c4ccccc4F)nc3c2)c1 | 6.8
75 | COc1ccc(CCNC(=O)C2CCCCC2C(=O)O)cc1 (stereo unspecified) | 6.3
76 | CC1=CCN(C(C)(C)C)CC1=O | -0.3
77 | CCOC(=O)c1c(Nc2ccccc2)sc(C=NCCc2ccccc2)c1O | -7.7
78 | COc1ccc(Cl)cc1NC(=O)Cc1ccccc1 | 4.3
79 | COc1ccc(OC)c(-n2c(O)c(C=NCc3ccccc3F)c(=O)[nH]c2=O)c1 | 5.8
80 | CCOc1cc(C2NC(=S)NC(C)=C2C(=O)Nc2ccc(OC)cc2)ccc1O (stereo unspecified) | -3.2
81 | CCc1ccc(CN2CCN(C(=O)c3ccco3)CC2)cc1 | -15.9
82 | CCCSc1nc2ccccc2n1CCO | -1.9
83 | c1cnn(-c2cc(NC3CCCCC3)ncn2)c1 | -11.6
84 | COc1ccc(OC)c(C2/C(=C(\O)c3ccc(Cl)cc3)C(=O)C(=O)N2c2cc(C(C)(C)C)on2)c1 (stereo unspecified) | -9
85 | O=C1NC(=O)C(=Cc2ccc(-c3cc(Cl)c([N+](=O)[O-])cc3Cl)o2)C(=O)N1 | 81.2
86 | CCc1ccc(CN2CCN(S(C)(=O)=O)CC2)cc1 | 9
87 | Cc1cc2[nH]c(=O)cc(-c3ccccc3)n2n1 | -5.3
88 | COc1ccc(C2C3=C(CC(C)(C)CC3=O)NC3=C2C(=O)CC(C)(C)C3)cc1C(=O)O | -5.1
89 | N/C(=N\OC(=O)c1ccccc1I)c1cccnc1 | 2.2
90 | N/C(=N\OC(=O)c1ccc(Cl)c([N+](=O)[O-])c1)c1ccccn1 | -7.2
91 | O=S(=O)(NCc1ccncc1)c1ccc(F)cc1 | 13.7
92 | O=C1CC(Cc2ccc(Cl)cc2)C(=O)N1c1ccc(Cl)c(Cl)c1 (stereo unspecified) | -7.4

Row | Structure (SMILES) | displacement [%]
93 | CCOc1cc(/C=N/n2cnnc2)ccc1OCc1cccc2ccccc12 | -2.6
94 | CSc1ccc(/C=N/NC(=O)c2cc(-c3ccccc3)n[nH]2)cc1 | 7.5
95 | CCOC(=O)CNC(=O)c1ccc(-c2ccccc2)cc1 | -10.9
96 | COCCN1C(=O)/C(=C\c2ccc(SC)cc2)C(C(=O)OC)=C1C | -38.9
97 | Cc1ccc(C)c(N(CC(N)=O)S(=O)(=O)c2ccccc2)c1 | -5.5
98 | O=C(N/C(=C/c1ccc([N+](=O)[O-])cc1)c1nc2ccccc2[nH]1)c1ccccc1 | 15.4
99 | Fc1ccc(NC(=S)NCC(c2ccccc2)c2ccccc2)cc1 | -10.6
100 | N#C/C(=N/Nc1ccccc1F)C(=N)N1CCOCC1 | 8.4
101 | CC(NC(=O)C(NC(=O)OCc1ccccc1)C(C)C)C(=O)OCc1ccc([N+](=O)[O-])cc1 (stereo unspecified) | -18
102 | COc1c(Cl)ccc(Cl)c1C(=O)Nc1sc2c(c1C(N)=O)CCCC2 | -4.2
103 | CSc1nc(C)cc(-n2ccc(=O)[nH]c2=O)n1 | 2.5
104 | Cc1cc(OCC(=O)Nc2ccc(I)cc2Cl)ccc1Cl | 42.6
105 | CCC(C)c1ccc(NC(=O)CCc2ccccc2)cc1 (stereo unspecified) | -7.7
106 | CCOc1ccc(Cc2c(C)[nH]c3c(Br)cccc3c2=O)cc1 | 3.2
107 | O=C(Nc1ccc2c(c1)OCO2)c1ccccc1[N+](=O)[O-] | -5.9
108 | c1ccc(Nc2nc(-c3ccccn3)cs2)nc1 | -20.6
109 | Cc1ccc(Cl)c(OCCCCN2CCCC2)c1 | -4
110 | COc1cc([N+](=O)[O-])ccc1NC(=O)COc1ccccc1C(C)(C)C | 38.1
111 | Cc1ccccc1OCC(=O)N1N=C(c2ccc(F)cc2)CC1(O)C(F)(F)F (stereo unspecified) | -4.5
